From PubChem BioAssay AID686978 (National Center for Advancing Translational Sciences (NCATS), 2013)
In all, about 420,000 compounds went through this assay and about 64,000 (15%) were called active. Inconclusive results, whose numbers are uncertain, are shown with a selection of clear calls. The call rests on the fitted dose curve; in most records, active means well fitted inhibition curve with a large enough effect; inconclusive means small, poorly fitted or top-dose-only effect; inactive means flat fitted curve, though single readings scatter. No potency is given beside an inconclusive call; the fits are too rough.

test: qHTS for Inhibitors of human tyrosyl-DNA phosphodiesterase 1 (TDP1): qHTS in cells in absence of CPT; settings: DT40 Tdp1-/- hTDP1 cells, no CPT, ATP luminescence, 48 h; activity change, negative = growth inhibition: at 46.2 µM (top of the series) unless noted; further: nearly all actives have a fitted effect of over 55% in size
Summary of the method: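 Growth of hTDP1-complemented DT40 Tdp1-knockout cells is measured by ATP luminescence after at least 48 hr compound exposure at 37 °C, with DMSO substituting for the 20 nM CPT used in the parallel screen.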
On the % scale 0 is the no-effect control and ±100 the full control effect; potency means the concentration at half of the fitted maximal effect; tags describe the fitted curve by direction and shape.

SMILES	Potency	activity change, negative = growth inhibition
Cc1ccc(C)c(NC(=O)C2Cc3ccccc3CN2C(=O)OCc2ccccc2)c1 (centres undefined)	active: 20.6 µM	–
CC1CCCN(S(=O)(=O)c2ccc3[nH]c4c(c3c2)CCCC4)C1 (centres undefined)	inconclusive [inhibitor, single point]	–
CC1=NN(C(N)=S)C(=O)C1N=Nc1ccc([N+](=O)[O-])cc1 (centres undefined)	inconclusive [inhibitor, full curve]	–
CNc1ncnc2ccc(-c3ccccc3C)cc12	active: 23.1 µM	–
CN(C)S(=O)(=O)c1cccc(C(=O)N2CCN(S(=O)(=O)c3ccc4c(c3)OCCO4)CC2)c1	active: 16.4 µM	–
c1ccc([C@H]2CN3C(=N2)Sc2ccccc23)cc1	inconclusive [inhibitor, single point]	–
COc1ccc(OC)c(NC(=O)c2oc3c(c2C)C(O)CC(C)(C)C3)c1 (centres undefined)	inconclusive [inhibitor, single point]	–
Cn1c(=O)c(-c2ccccc2)cc2ccccc21	–	inconclusive: -31.6% [inhibitor]
CC(=O)NCC1(c2ccccc2)CCN(CCCC(=O)c2ccc(F)cc2)CC1	–	inactive: -2.13%
O=c1[nH][nH]c2c1[C@H](CCc1cccc(Cl)c1)O[C@H](CCc1ccccc1)C2	active: 18.4 µM	–
O=C(CN(Cc1ccccc1)S(=O)(=O)c1ccc2c(c1)OCCO2)N/N=C/c1cccc(Br)c1	inconclusive [inhibitor, single point]	–
COc1cc(NC(=O)COc2ccccc2Cl)ccc1NC(=O)C(C)C	inconclusive [inhibitor, partial curve]	–
C[C@H](CO)N1C[C@H](C)[C@@H](CN(C)S(=O)(=O)c2ccc(F)cc2)OCc2cn(nn2)CCCC1=O	–	inactive: 1.53%
Cc1sc2nc(SCc3ccc(C(=O)O)cc3)n(Cc3ccco3)c(=O)c2c1C	inconclusive [inhibitor, single point]	–
COc1cccc(CNC(=O)Cn2ccc3cc(S(=O)(=O)N4CCCCCC4)ccc32)c1OC	inconclusive [inhibitor, single point]	–
CCCCNC(=O)Nc1ccc(Br)cn1	inconclusive [inhibitor, partial curve, poor fit]	–
Cc1ccc(C(C(=O)NC2CCCCC2)N(C)Cc2ccccc2)cc1 (centres undefined)	inconclusive [inhibitor, single point]	–
COc1ccc(S(=O)(=O)N2CC(C)N(C(=O)N3CCOCC3)C2)cc1 (centres undefined)	–	inactive: 13%
CCN(C(=O)COC(=O)c1ccc(C)c(S(=O)(=O)N2CCOCC2)c1)C1CCS(=O)(=O)C1 (centres undefined)	–	inactive: -13%
